Experimental findings from patent US20210388118A1 (ZHEJIANG SHIMAI PHARMACEUTICAL, published 2021) are described below.

Test [1] has as its target T1, recombinant cynomolgus CD3 (cynomolgus, UniProt Q95LI5 22-117).
T1 construct: Bought protein; subunit make-up not described; also called cCD3
T1 sequence (looked up): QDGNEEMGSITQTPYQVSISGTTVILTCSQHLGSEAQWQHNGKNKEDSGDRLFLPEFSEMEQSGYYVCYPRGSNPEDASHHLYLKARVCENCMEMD
In words: ELISA, recombinant cCD3 coated. On the procedure:
(§1) ELISA was performed according to standard protocols. […] The plates were washed with PBS containing 0.05% Tween 20. […] The assay was developed at room temperature with TMB substrate (Sigma-Aldrich) and monitored at 450 nm with a microplate reader.
Background: In an ELISA, binding on a coated surface is turned into a signal by an enzyme label.

The next test has as its target T2, recombinant human CD3 (human, UniProt P07766 23-126).
T2 construct: Bought protein; subunit make-up not described; also called hCD3
In words: ELISA, recombinant hCD3 coated. On the procedure: as §1

A further test deals with T3, recombinant human EGFR (human, UniProt P00533 in part).
T3 construct: Bought protein; construct not described; also called hEGFR
In words: ELISA, recombinant antigen coated. On the procedure:
as §1

Another test concerns the target T4, recombinant human HER4 (human, UniProt Q15303 26-649, limits assumed).
T4 construct: also called hHER4
T4 sequence (looked up): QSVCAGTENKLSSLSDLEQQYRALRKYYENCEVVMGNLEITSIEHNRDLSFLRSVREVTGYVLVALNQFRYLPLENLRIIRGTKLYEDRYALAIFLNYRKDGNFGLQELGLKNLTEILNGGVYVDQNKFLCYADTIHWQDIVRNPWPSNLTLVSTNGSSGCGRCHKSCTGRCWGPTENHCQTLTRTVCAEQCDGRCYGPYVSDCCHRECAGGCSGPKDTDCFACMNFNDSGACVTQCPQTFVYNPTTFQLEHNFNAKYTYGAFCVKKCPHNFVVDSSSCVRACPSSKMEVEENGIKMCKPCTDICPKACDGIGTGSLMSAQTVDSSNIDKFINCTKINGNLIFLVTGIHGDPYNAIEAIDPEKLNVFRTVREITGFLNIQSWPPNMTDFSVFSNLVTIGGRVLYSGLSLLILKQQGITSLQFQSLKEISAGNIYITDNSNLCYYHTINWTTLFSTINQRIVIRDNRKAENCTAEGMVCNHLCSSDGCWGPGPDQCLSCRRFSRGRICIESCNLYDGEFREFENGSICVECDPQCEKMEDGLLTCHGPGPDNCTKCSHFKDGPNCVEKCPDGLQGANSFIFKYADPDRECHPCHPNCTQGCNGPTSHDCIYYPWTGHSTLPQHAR
In words: ELISA, recombinant antigen coated. On the procedure: as §1

Test [2] has as its target human EGFR on cells (HCT116, A549, A431, HT29) (human, UniProt P00533). The test can be described thus: cell-based or functional assay.
The target of test [3] is T5, human CD3 on cells (Jurkat T cell line; T cells) (human, UniProt P07766).
T5 construct: whole, on cells; CD3 is a complex of several chains; also called cell surface CD3; cell-surface CD3
In words: flow cytometry on Jurkat cells, concentration series. From the text: The cells were washed once with PBSA and then used for flow cytometry analysis.

Sequence of recombinant human CD3 (P07766 23-126): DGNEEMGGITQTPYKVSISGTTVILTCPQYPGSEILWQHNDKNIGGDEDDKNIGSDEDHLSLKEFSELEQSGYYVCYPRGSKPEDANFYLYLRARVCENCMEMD

B1: proBiTE-1s1spg (proBiTE-1s1sp with germline reversions in hSP34) (bispecific antibody)
heavy: EVQLVETGGGVVQPGRSLRLSCAASGFTFSSYAMHWVRQAPGKGLEWVAVISYDGSNKYYADSVKGRFTISRDNSKNTLYLQMNSLRAEDTAVYYCARGYVARGDFDYWGQGTLVTVSSGGGSSGGGGSGGGGSEVQLVESGGGLVQPGGSLRLSCAASGFTFNTYAMNWVRQAPGKGLEWVARIRSKYNNYATYYADSVKGRFTISRDDSKNTLYLQMNSLRAEDTAVYYCARHGNFGSSYVSYFAYWGQGTTVTVSSASTKGPSVFPLAPSSKSTSGGTAALGCLVKDYFPEPVTVSWNSGALTSGVHTFPAVLQSSGLYSLSSVVTVPSSSLGTQTYICNVNHKPSNTKVDKKVEPKS[… human IgG1 Fc with T366L Y407H (EU numbers) …]
light: DVVMTQSPSTLSASVGDRVTITCRASQSMSRWLAWYQQKPGKGPKLLIYATSTLQSGVPSRFSGSGSGTEFTLTISSLQPEDFATYYCQQLDSFPFSFTFGPGTKVDLKGSGSGRSDNHGGGGSEIVVTQSPATLSVSPGERATLSCRSSTGAVTTSNYANWVQQKPGQAPRGLIGGANKRAPGVPARFSGSLSGDEATLTISSLQSEDFAVYYCALWYSNLWVFGQGTKLEIKRTVAAPSVFIFPPSDEQLKSGTASVVCLLNNFYPREAKVQWKVDNALQSGNSQESVTEQDSKDSTYSLSSTLTLSKADYEKHKVYACEVTHQGLSSPVTKSFNRGE[… human IgG1 Fc with T366L Y407H (EU numbers) …]
modifications: Biotinylated in the ELISA per paragraph 229; sites not stated.
notes: also called proBiTE-spg
What is called EC50 is the midpoint of the concentration-response curve. For B1, the values for the 50% effective concentration (EC50) (in test [1]; with recombinant human CD3) were 4.5 nM and 3.4 nM, respectively. Moreover, the figures for the binding result with recombinant human EGFR and in the test with recombinant human HER4 were “binds” and “no binding”, respectively.

B2: HBiTE-spg (proBiTE-1s1spg with a protease non-cleavable linker) (bispecific antibody)
heavy: EVQLVETGGGVVQPGRSLRLSCAASGFTFSSYAMHWVRQAPGKGLEWVAVISYDGSNKYYADSVKGRFTISRDNSKNTLYLQMNSLRAEDTAVYYCARGYVARGDFDYWGQGTLVTVSSGGGSSGGGGSGGGGSEVQLVESGGGLVQPGGSLRLSCAASGFTFNTYAMNWVRQAPGKGLEWVARIRSKYNNYATYYADSVKGRFTISRDDSKNTLYLQMNSLRAEDTAVYYCARHGNFGSSYVSYFAYWGQGTTVTVSSASTKGPSVFPLAPSSKSTSGGTAALGCLVKDYFPEPVTVSWNSGALTSGVHTFPAVLQSSGLYSLSSVVTVPSSSLGTQTYICNVNHKPSNTKVDKKVEPKS[… human IgG1 Fc with T366L Y407H (EU numbers) …]
light: DVVMTQSPSTLSASVGDRVTITCRASQSMSRWLAWYQQKPGKGPKLLIYATSTLQSGVPSRFSGSGSGTEFTLTISSLQPEDFATYYCQQLDSFPFSFTFGPGTKVDLKGSGGGGSGGGGSEIVVTQSPATLSVSPGERATLSCRSSTGAVTTSNYANWVQQKPGQAPRGLIGGANKRAPGVPARFSGSLSGDEATLTISSLQSEDFAVYYCALWYSNLWVFGQGTKLEIKRTVAAPSVFIFPPSDEQLKSGTASVVCLLNNFYPREAKVQWKVDNALQSGNSQESVTEQDSKDSTYSLSSTLTLSKADYEKHKVYACEVTHQGLSSPVTKSFNRGE[… human IgG1 Fc with T366L Y407H (EU numbers) …]
modifications: Biotinylated in the ELISA per paragraph 229; sites not stated.
notes: also called HBiBody-spg
Consider B2, for which the values for the EC50 (in test [1]; in the test with recombinant human CD3) were 3.8 nM and 4.5 nM, respectively. In addition, the binding result with recombinant human EGFR is recorded as “binds”; with recombinant human HER4 it was “no binding”.

B3: proBiTE-1 (protease cleavable bispecific T cell engager, EGFR×CD3) (bispecific antibody)
heavy: EVQLVETGGGVVQPGRSLRLSCAASGFTFSSYAMHWVRQAPGKGLEWVAVISYDGSNKYYADSVKGRFTISRDNSKNTLYLQMNSLRAEDTAVYYCARGYVARGDFDYWGQGTLVTVSSGGGSSGGGGSGGGGSQVQLVQSGGGVVQPGRSLRLSCKASGYTFTRYTMHWVRQAPGKGLEWIGYINPSRGYTNYNQKVKDRFTISTDKSKSTAFLQMDSLRPEDTAVYYCARYYDDHYSLDYWGQGTTLTVSSASTKGPSVFPLAPSSKSTSGGTAALGCLVKDYFPEPVTVSWNSGALTSGVHTFPAVLQSSGLYSLSSVVTVPSSSLGTQTYICNVNHKPSNTKVDKKVEPKS[… human IgG1 Fc with T366L Y407H (EU numbers) …]
light: DVVMTQSPSTLSASVGDRVTITCRASQSMSRWLAWYQQKPGKGPKLLIYATSTLQSGVPSRFSGSGSGTEFTLTISSLQPEDFATYYCQQLDSFPFSFTFGPGTKVDLKGGGGSLSGRSDNHGGGGSDIQMTQSPSSLSASVGDRVTITCSASSSVSYMNWYQQTPGKAPKRWIYDTSKLASGVPSRFSGSGSGTDYTFTISSLQPEDIATYYCQQWSSNPFTFGQGTKLQITRTVAAPSVFIFPPSDEQLKSGTASVVCLLNNFYPREAKVQWKVDNALQSGNSQESVTEQDSKDSTYSLSSTLTLSKADYEKHKVYACEVTHQGLSSPVTKSFNRGE[… human IgG1 Fc with T366L Y407H (EU numbers) …]
modifications: Biotinylated in the FcγR ELISA; sites not stated.
notes: also called intact proBiTE-1; copies: 1 + 1
Consider B3, for which, in test [2], the “killing of HT29 cells (luciferase) with human PBMC, EC50” value was roughly 0.09 nM and the “killing of HT29 cells, EC50 fold higher than that of iBiTE” value turned out to be 15 fold. Further, the “fold weaker binding than iBiTE” value in test [3] was roughly 30 fold.
